# Source: the supplement of paper PMC10338343
# ± gives the standard deviation. Over roughly 6,600 sequences, “pre-steady-state target cleavage rate” has its median near 0.07; the highest 2% begin near 0.72. Only a part is listed here, and it is no random draw.
# Tested on: MIWI (PIWIL1) piRISC loaded with Kctd7 piRNA (30 nt)
# Assay: pre-steady-state target cleavage rate (min^-1); MIWI and MILI are mouse PIWI proteins and EfPiwi is from a freshwater sponge; tags in brackets are library labels; higher = faster piRNA-guided slicing of the target
# Conditions: guide: Kctd7 piRNA 5'p-UGUUAAUCUCUCAGAGAAGGUGACAGUGAU; auxiliary factor: 500 nM mouse GTSF1
# In short: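 Active affinity-purified piRISC carrying one synthetic guide (1 nM) was mixed with a transcribed, DNA-blocked target RNA library […] in HEPES–potassium acetate buffer at 33 °C for 0–8 or 0–960 min, with or without 500 nM GTSF1 partner protein. Uncleaved targets were then sequenced and normalised to depth and to weakly complementary targets. Three trials were pooled, and k3 was capped at 0.0001 min^-1. A burst-and-steady-state fit was applied to obtain the pre-steady-state cleavage rate.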
# 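Note: 1 nM active piRISC with 0.1 nM target library at 33 °C single turnover.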
row,Sequence,pre-steady-state target cleavage rate
1,UAGUGAGACACCUUCUCUCAGAGAUUAACA,0.0322 ± 0.0045
2,AUCACUGUCACCUUCUCUGAGUGUUUAACA,0.0429 ± 0.0084
3,UAGUGUGUCACCUUCUCUGAGAGAUCAACA,0.207 ± 0.029
4,UAGUGACUCACCUUCACUCAGAGAUUAACA,0.00579 ± 0.0035
5,UAGUGACAGAGCUUCUCUGAGAGUUUAACA,0.018 ± 0.0046
6,UAGACUGUCACGUUCUCUGAGAGAUUUACA,0.13 ± 0.02
7,UACACUGUCUCCUUCUCUGAGAGUUUAACA,0.452 ± 0.064
8,UAGUGACUCACCUACUCAGAGAGAUUAACA,0.0146 ± 0.0038
9,UAGACUGUCACCUUCACUGAGAGUUUAACA,0.339 ± 0.051
10,AUGACUGUCACCUUCUCUGAGAGAUUUACA,0.402 ± 0.049
11,UAGUGACUCACCUUCACUGAGAGAUUAUGA,0.0295 ± 0.0095
12,UAGUGACACACCUUCACUGAGAGAUUUACA,0.166 ± 0.035
13,UAGACUGUGACCUUCUCUGAGAGAUAAACA,0.279 ± 0.031
14,UACACUGUCUCCUACUCUGAGAGAUUAACA,0.571 ± 0.026
15,UAGUCGGUCACCUUCUCUGAGAGAUUAACA,0.73 ± 0.037
16,UAGUCUGUCACCUUCAUCUGAGAGAUUAACA,0.136 ± 0.032
17,UAGUGUGACACCUUCUCUGUGAGAUUAACA,0.159 ± 0.014
18,UAGUGUGUCACCUUCUCUGAGAGAUUAGCA,0.187 ± 0.023
19,UACUCUGUCAGCUUCUCUGAGAGAUUAACA,0.628 ± 0.03
20,UACACUGUCACCUUCUCUGAGACAUUAUCA,0.0386 ± 0.011
21,UAGUGAGUCACGUUCUCUGAGAGAUUAUCA,0.221 ± 0.031
22,UAGUGACUCUCCUUCUCUGAGAGAAUAACA,0.00661 ± 0.0021
23,AUCACUGUCACCUUUUCUGAGAGAUUAACA,0.748 ± 0.029
24,UACACAGUCACCUUCUCUGACAGAUUAACA,0.482 ± 0.036

row,Sequence,pre-steady-state target cleavage rate
1,UAGACUGUCACCUUUCUCUGAGAGAUUAACA,0.538 ± 0.039
2,AUCACUGUCACCUUCACAGAGAGAUUAACA,0.088 ± 0.017
3,UACACUGUCACCUUCAGAGAGAGAUUUUGA,0.046 ± 0.024
4,UACACUCUCACCUUCUCUGAGAGAAUAACA,0.132 ± 0.019
5,UACAUGUCACCUUCUCUGAGAGAUUAACA,0.451 ± 0.026
6,AUCACUGUCUCCUUCUCUGAGAGAUUAACA,0.697 ± 0.042
7,AUCACUGUCAGCUUCUCUGAGAGAUUUACA,0.27 ± 0.035
8,UAGUGACUCACCUUCUCUGAGAGAUAAUCA,0.128 ± 0.026
9,UAGACUGUCACCUUCACUGAGACAUUAACA,0.233 ± 0.028
10,UAGUGACAGUCCUUGUCUGAGAGAUAAACA,0.0114 ± 0.0038
11,UAGUCUGUCACGUUGUCUGAGAGAUUAACA,0.29 ± 0.02
12,UAGUGACAGUCCUUGUCUGAGAGAUUAACA,0.0135 ± 0.0024
13,UAGUGUGUCACCUUCUCUGAAAGAUUAACA,0.395 ± 0.02
14,UAGUGAGUCACCUUCUCUGAGAGAAAUAGA,0.0114 ± 0.006
15,UAGUGAGUCUCCUUCUCUGACAGAUUAACA,0.376 ± 0.031
16,UAGUGAGUCACCUUCUCAGUGAGAUUAACA,0.0258 ± 0.0056
17,UACACUGUCACCUUCUCAGAGAGAUUUUGA,0.0831 ± 0.026
18,UAGACUGUCACCUUCUCUGAGAGAUUCAACA,0.306 ± 0.048
19,UUCACUGUCACACUUCUCUGAGAGAUUAACA,0.614 ± 0.03
20,UAGUCUGUACACCUUCUCUGAGAGAUUAACA,0.671 ± 0.042
21,UUCACUGUCACCUUCUCUGUCAGAUUAACA,0.0116 ± 0.0029
22,UAGUGUGUCACCUUCUCUGACUGAUUAACA,0.0144 ± 0.0043
23,UUCACUGUCACCUUCUGUGAGAGAUUAACA,0.601 ± 0.028
24,UUCACACUCACCUUCUCUGAGAGAUUAAGA,0.0911 ± 0.016

row,Sequence,pre-steady-state target cleavage rate
1,UAGACUGUCACCUUCUCUGAGGAUUAACA,0.00433 ± 0.0033
2,UAGUGACACACCUUCUCUGAGAGAUUGAACA,0.218 ± 0.033
3,UAGUGACACCCUUCUCUGAGAGAUUAACA,0.192 ± 0.026
4,UAGUCUGUCACCUUCUCUGUGAGAUUAACA,0.295 ± 0.012
5,UAGUGACAGUCCUUCUCUGCGAGAUUAACA,0.0159 ± 0.0032
6,UAGUGACUCACCUUCUCAGAGAGAAUAACA,0.0107 ± 0.0045
7,UAGACUGUCUACCUUCUCUGAGAGAUUAACA,0.157 ± 0.019
8,UAGUCUGUCACCUUCUUUGAGAGAUUAACA,0.467 ± 0.026
9,UAGUGACAGUGCUUCUCUUAGAGAUUAACA,0.00506 ± 0.0023
10,UUCACUGACACCUUCUCUGAGUGAUUAACA,0.0384 ± 0.0075
11,UUCACUGUCUCCAUCUCUGAGAGAUUAACA,0.597 ± 0.036
12,UUCACUGUCACCUUCUCUGAGACAAUAACA,0.0291 ± 0.008
13,UUCACUGUCACCUUCUGUGUGAGAUUAACA,0.075 ± 0.0075
14,UAGUCAGUCACCUUCUCUGAGAGAUAUUGA,0.0156 ± 0.0059
15,UAGUGACUCACCAUCACUGAGAGAUUAACA,0.0572 ± 0.012
16,UAGUCUGUGACCUUCUCUGAGAGAUUAUCA,0.165 ± 0.019
17,AUCUGAGUCACCUUCUCUGAGAGAUUUUGA,0.093 ± 0.019
18,UUGACUGUCACCAUCUCUGAGAGAUUAACA,0.756 ± 0.044
19,UAGACUGUCACCUUCUUCUGAGAGAUUAACA,0.0209 ± 0.0083
20,AUCACUGUCACCUUCAUCUGAGAGAUUAACA,0.275 ± 0.053
21,UACACUGUCACCUUCUCUGAGAGAUUAAAA,0.137 ± 0.022
22,AUCACAGUCACCUUCUCUGAGAGAUUAACA,0.707 ± 0.028
23,UAGUGAGUCACCUUCUGUGAGAGAUUAUCA,0.032 ± 0.0068
24,AUCACUGUCACCUUCUCUGAGAUAUUAACA,0.296 ± 0.026
